From PubChem BioAssay AID624417 (National Center for Advancing Translational Sciences (NCATS), 2012)
Values joined by “and” are separate entries in the source; they are usually repeats but may differ in a detail not shown here. Equal values may be shown once. Out of some 410,000 compounds screened, about 6,400 (1.6%) were called active. The shares of active, inactive and inconclusive entries below differ from those in the screen. Calls follow the shape of the dose curve; as a rule, active = well fitted inhibition curve with a large enough effect; inconclusive = small, poorly fitted or top-dose-only effect; inactive = no such curve, though single readings can be large or run the other way. Potencies beside an inconclusive call are fits to weak or partial responses and may not hold up.

Biological target: Glucagon-like peptide 1 receptor (Homo sapiens) (UniProt P43220)
Assay: qHTS of GLP-1 Receptor Inverse Agonists (Inhibition Mode); also: nearly all actives have a fitted effect of over 55% in size
Conditions: HEK293 GLP-1R CRE-luciferase, luminescence, 24 h, GLP-1R form is constitutively active; activity change, negative = inhibition: at 38.3 µM (top of the series) unless noted
Method in brief: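 Inverse agonists were sought by their lowering of basal cAMP reporter luciferase output in HEK293 cells stably carrying constitutively active human GLP-1R, after 24 h compound treatment.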
% is scaled to controls: 0 for no effect and ±100 for the full control effect; potency is read from the fitted curve at half-maximal effect; tags tell the direction and shape of the fitted curve.

UniProt P43220, sequence (P43220 whole entry, looked up): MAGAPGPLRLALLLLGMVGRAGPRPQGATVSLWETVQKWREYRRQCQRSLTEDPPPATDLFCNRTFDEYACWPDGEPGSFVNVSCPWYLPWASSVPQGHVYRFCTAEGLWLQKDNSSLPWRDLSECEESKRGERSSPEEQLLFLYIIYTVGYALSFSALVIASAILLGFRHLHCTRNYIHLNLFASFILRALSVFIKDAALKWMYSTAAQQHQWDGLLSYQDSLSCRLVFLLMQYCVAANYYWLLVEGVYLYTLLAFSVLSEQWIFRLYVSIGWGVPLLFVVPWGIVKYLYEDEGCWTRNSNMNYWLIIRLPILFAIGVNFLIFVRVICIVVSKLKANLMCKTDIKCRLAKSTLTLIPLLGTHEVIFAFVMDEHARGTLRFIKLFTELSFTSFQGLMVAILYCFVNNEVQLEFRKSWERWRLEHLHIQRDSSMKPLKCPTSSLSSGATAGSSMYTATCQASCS

Potency, inconclusive:
Cc1ccc(NC(=S)N(CCCN2CCOCC2)Cc2cccs2)c(C)c1 28.2 µM [inhibitor, single point]
Cc1nnc(NC(=O)c2nc(S(=O)(=O)Cc3ccccc3)ncc2Cl)s1 28.2 µM [inhibitor, single point]
CCOC(=O)c1ccc(NC(=O)c2oc3ccc4c(c3c2C)C(=O)CC(C)(CC)O4)cc1 (stereo not given) 0.501 µM [inhibitor, full curve, poor fit]
COc1ccc(C(=O)NCC(c2ccco2)N2CCc3ccccc32)cc1 (stereo not given) 3.55 µM [inhibitor, partial curve, poor fit]
C/C(=N\NC(=S)Nc1c(C)cccc1C)c1ccc(OC(F)F)cc1 11.2 µM [inhibitor, partial curve, poor fit]
S=C(NCCCc1ccccc1)NCc1ccccc1 22.4 µM [inhibitor, single point]
COc1cc(C)cc(CN2CCC(Cc3ccccc3)CC2)c1O 12.6 µM [inhibitor, partial curve, poor fit]
CCOC(=O)C1=CCN(S(=O)(=O)c2ccccc2C)C1c1ccc(Br)cc1 (stereo not given) 14.1 µM [inhibitor, single point]
Cc1ccccc1CS(=O)(=O)Cc1ccc(C(=O)NCCc2ccccc2)o1 11.2 µM [inhibitor, single point] and 28.2 µM [inhibitor, single point]
COC(=O)c1ccc(N2NC(=O)/C(=C/c3cc(OC)c(O)c(OC)c3)C2=O)cc1 3.55 µM [inhibitor, full curve, poor fit]
O=C(CCCN1C(=O)/C(=C/c2cccs2)SC1=S)Nc1cccc(O)c1 6.31 µM [inhibitor, partial curve, poor fit]
Cc1ccc(Nc2c(-c3ccc(C)cc3)nc3cnccn23)cc1 11.2 µM [inhibitor, single point]
CC1c2cc3c(cc2CCN1C(=O)c1cccc(Cl)c1)OCCCO3 (stereo not given) 3.55 µM [inhibitor, full curve]
CSc1cccc(NC(=S)Nc2cc(C)ccc2C)c1 0.447 µM [inhibitor, full curve, poor fit]
Cc1ccc(-n2c(C)cc(C(=O)COC(=O)c3ccc[nH]c3=O)c2C)cc1C 10 µM [inhibitor, partial curve]
COC(=O)C1=CN(c2ccc(F)c(F)c2)C=C(C(=O)OC)C1c1ccc([N+](=O)[O-])cc1 10 µM [inhibitor, partial curve, poor fit]
COc1cccc(Cn2c3ccc(NC(=O)Cc4cc(OC)ccc4OC)cc3c(=O)n2C)c1 2 µM [inhibitor, full curve, poor fit]
Clc1ccc(CCNc2ncnc3c2c(-c2ccccc2)cn3-c2ccccc2)cc1 14.1 µM [inhibitor, partial curve, poor fit]
O=C(Nc1ccc(F)cc1F)C1CCCN(c2ncnc3c2nc2n3CCCCC2)C1 (stereo not given) 1 µM [inhibitor, full curve, poor fit]
CCOc1ccc(N(CC(=O)NC2CCCCC2)C(=O)CSc2nnc(COc3ccccc3)o2)cc1 1.41 µM [inhibitor, partial curve, poor fit]
COc1cc(CNC2CCCC2)c(Br)cc1OC1CCCC1 8.91 µM [inhibitor, partial curve, poor fit]
Cc1cc(N2CCOCC2)nc2ccc(NC(=S)N3CCCCC3C)cc12 (stereo not given) 28.2 µM [inhibitor, single point]
O=C(COc1ccc(Cl)cc1Cl)NCCN1CCCCC1 11.2 µM [inhibitor, partial curve, poor fit]
Cc1ccc2ccc(C(Nc3ccccn3)c3ccccc3)c(O)c2n1 (stereo not given) 7.94 µM [inhibitor, partial curve, poor fit] and 12.6 µM [inhibitor, partial curve]
O=C(c1ccc(NC(=S)Nc2ccc(Cl)c(Cl)c2)cc1)N1CCCC1 10 µM [inhibitor, partial curve, poor fit]
COCCn1c(C)cc(C(=O)COC(=O)C23CC4CC(CC(O)(C4)C2)C3)c1C 20 µM [inhibitor, partial curve, poor fit]
COc1ccc(Nc2nnc(SC(C(=O)Nc3ccc(OC)c(Cl)c3)c3ccccc3)s2)cc1 (stereo not given) 22.4 µM [inhibitor, single point]
COC(=O)CN1C(=O)CSc2ccc(S(=O)(=O)Nc3ccc(Cl)cc3C)cc21 28.2 µM [inhibitor, single point]
O=C(OC(C(=O)Nc1ccc(Cl)c(C(F)(F)F)c1)c1ccccc1)C1=COCCO1 (stereo not given) 14.1 µM [inhibitor, single point]
Cc1cccc(NC(=O)C2CCCCN2S(=O)(=O)c2ccccc2)c1C (stereo not given) 20 µM [inhibitor, single point]
C/C=C/c1ccc(OCCN2CCc3ccccc3C2)c(OC)c1 11.2 µM [inhibitor, partial curve, poor fit]
N/C(Cc1ccc([N+](=O)[O-])cc1)=N\OC(=O)C1CCCCC1 28.2 µM [inhibitor, single point]
COc1ccc(NCC(O)Cn2c(C)c(C)c3ccccc32)cc1 (stereo not given) 7.94 µM [inhibitor, partial curve]
Cc1ccc(C(=O)CSc2ccccc2C(=O)O)cc1 11.2 µM [inhibitor, partial curve, poor fit]
COc1ccc(-c2oc3c(c2C#CC2(O)CCCCC2)C(OC(C)=O)CCC3)cc1 (stereo not given) 25.1 µM [inhibitor, single point]
Clc1cccc(CSc2nnc(-c3sccc3-n3cccc3)o2)c1 10 µM [inhibitor, single point]
COc1cc(NS(=O)(=O)c2ccc(NC(=O)COc3ccc(C)cc3)cc2)nc(OC)n1 31.6 µM [inhibitor, single point]
CCOC(=O)Cn1c(CN2CCN(C(c3ccccc3)c3ccccc3)CC2)nc2c1c(=O)n(C)c(=O)n2C 28.2 µM [inhibitor, single point]
Cc1ncoc1C(=O)Nc1ncc([N+](=O)[O-])s1 8.91 µM [inhibitor, partial curve, poor fit]
Cc1onc(-c2ccccc2Cl)c1C(=O)Nc1nnc(-c2ccc(F)cc2)s1 4.47 µM [inhibitor, partial curve, poor fit]
COc1ccc(CCNC(=O)c2cc(C3CC3)nc3c2cnn3C(C)C)cc1 15.8 µM [inhibitor, partial curve, poor fit]
C/C(CCC1CC(C)OC1=O)=N\NC(N)=S (stereo not given) 10 µM [inhibitor, partial curve, poor fit]
COc1ccc([C@]2(C(C)C)ON(c3ccccc3C(F)(F)F)C2=O)cc1 11.2 µM [inhibitor, partial curve, poor fit]
Cc1onc(-c2c(Cl)cccc2Cl)c1COC(=O)c1ccc(Cl)cc1 31.6 µM [inhibitor, partial curve, poor fit]
Cc1cccc(Cn2nc(C)cc2NC(=O)Cn2cc([N+](=O)[O-])cn2)c1 8.91 µM [inhibitor, partial curve, poor fit]
COc1ccccc1-n1nnnc1SCc1cc2c(cc1Br)OCO2 28.2 µM [inhibitor, single point]
CCc1ccc(NC(=O)c2ccc(S(=O)(=O)NCc3cccnc3)cc2)cc1 10 µM [inhibitor, partial curve, poor fit]

Potency, active:
CC(C)(C)c1ccc(NC(=O)COC(=O)C2(C)CC2(Cl)Cl)cc1 (stereo not given) 3.55 µM
Cc1ccc(S(=O)(=O)c2nc(-c3ccccc3Cl)oc2N2CCN(C)CC2)cc1 10 µM

Potency, inactive:
COc1ccccc1C(=O)Nc1nc2ccc(S(=O)(=O)N3CCCC3)cc2s1
N#C/C(=C\c1ccc(N2CCOCC2)o1)c1ccccc1
O=C(Nn1c(O)c(C=C2N=c3ccccc3=N2)sc1=S)c1ccccc1Cl
CCOC(=O)CSc1nc2cc3c(cc2c(=O)n1CCCC(=O)NCc1ccc2c(c1)OCO2)OCO3
C[C@]12CC[C@H](O)C[C@@H]1CC[C@@H]1[C@@H]2CC[C@@]2(C)[C@H]1CCC(=O)[C@]21CCCO1
COC(=O)c1c(NC(=O)CN2C(=O)NC3(CCCCC3C)C2=O)sc2c1CCC2 (stereo not given)
CCCn1c(=O)n(-c2ccccc2)c(=O)c2sc3ccccc3c21
CC1CN(Cc2ccccc2)C(=O)N(c2ccccc2)C1=O (stereo not given)
CCc1ccc(C(=O)c2cn(CC(=O)Nc3ccc(F)cc3)c3cc4c(cc3c2=O)OCO4)cc1

Activity change, negative = inhibition, inactive:
N#C/C(=C\c1ccc(-c2cccc([N+](=O)[O-])c2)o1)C(=O)NCCN1CCOCC1 31.2% [at 7.66 µM]
Cc1ccc(NC(=O)CN2CCN(c3ccccn3)CC2)cc1S(=O)(=O)N(C)C -8.28% [at 0.307 µM]
